These results are taken from PubChem BioAssay (NCI).

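Step 1: Grow cells in 96-well plates. Step 2: Expose to compound for 48 hours at 5 concentrations. Step 3: Interpolate endpoints linearly; if unreached, use highest concentration. GI50: concentration for 50% inhibition of growth. TGI: total growth inhibition.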 Numbered stars: 1 amine (or outer) side, 2 acyl side, 3 side chain; on linkers, the order of the positions; unused ones are H or OH. Square brackets hold non-standard residues; d marks the D form. Peptide text beside a SMILES is read from it. * marks the point of attachment. ξ: configuration not given here. X13 = CCN(CC)c1ccc2cc(N*)c(=O)oc2c1; X28 = C=CCC(O[*:1])C(=O)[*:2]; NMeV = CN[CH](C(=O)O)C(C)C; dIva = CC[C@@](C)(N)C(=O)O; X12 = O=C(OCCN[*:1])[*:2]; NMeA = CN[CH](C)C(=O)O; Aib = CC(C)(N)C(=O)O; ξP = O=C(O)C1CCCN1; βAla = NCCC(=O)O

The assay has as its system NCI-H322M lung. Put plainly: DTP human tumour cell line panel, 48 h.
Usually TGI stands for the concentration giving total growth inhibition. Low values mean greater sensitivity of the cells, high ones lower sensitivity of the cells. `COc1ccc(C2(O)c3ccccc3C(=O)N(C)C2(O)c2ccc(OC)cc2)cc1` (stereo unspecified): the TGI is > 100 µM. Regarding `O=C(Cc1ccccc1)NNc1nc(NNC(=O)c2ccncc2)nc(Nc2cccc(Cl)c2)n1`, the TGI is > 10 µM. Take `COC(=O)C1CCC(=O)N1C(c1ccccc1)c1cc(OC)c(OC)c(OC)c1` (stereo unspecified): the TGI is > 100 µM. The GI50 is the concentration that inhibits growth by half. As to `CC1(C)CC[C@]2(C(=O)N3CCOCC3)CC[C@]3(C)C(=CC[C@@H]4[C@@]5(C)C/C(=C/c6ccncc6)C(=O)C(C)(C)[C@@H]5CC[C@]43C)[C@@H]2C1`, the GI50 was 4.32 µM and the TGI was > 100 µM.

Turning to `O=c1oc2c(ccc3ccccc32)cc1C1=CSC2=NCCN12`, the TGI is > 100 µM. As to `CCSc1nc(=[N+]2CCCC2)ss1`, the TGI is > 100 µM. Still for that read-out and setting: then `CC(C)C1COC(c2cccc(C3=N[C@@H](C(C)C)CO3)n2)=N1` (stereo partly specified), with > 100 µM; and `O=C1/C(=C/c2c(Cl)[nH]c3ccccc23)c2ccccc2N1c1ccccc1`, with 43 µM. On to `C=CCCCC1CCCNC1=S` (stereo unspecified), for which the TGI was > 100 µM. As to `Cc1ccc(Sc2ccc(C)cc2[N+](=O)[O-])c([N+](=O)[O-])c1`, the concentration for total growth inhibition (TGI) was > 100 µM.

Consider `COc1cc([C@@H]2c3cc4c(cc3[C@@H](OC(=O)c3ccccc3)C3COC(=O)[C@@H]32)OCO4)cc(OC)c1O` (stereo partly specified), for which the TGI is > 100 µM.

Take `Clc1nc(NCCc2ccccc2)c2ncn(-c3ccccc3)c2n1`: the TGI was > 100 µM.

In the case of `CC(=O)O[C@H]1CC[C@@]2(C)[C@@H](CC[C@@H]3[C@@H]2CC[C@]2(C)C=C(C=O)C[C@@H]32)C1`, the GI50 is 15 µM and the TGI came out at 30.2 µM. Consider `O=C(CN(/C=C/C(=O)C(F)(F)F)c1ccccc1)c1ccc(Cl)c(Cl)c1`, for which the GI50 was 12.9 µM and the total growth inhibition concentration (TGI) was found to be 26.8 µM.

The compound `CC1OC1C(=O)C1(O)C(C)C(O)C23OC2(C(O)c2c(O)cccc2C3=O)C1O` (stereo unspecified) showed a TGI of 0.4 µM. Still for that read-out and setting: then `CC(CCC(=O)O)C1CCC2C3C(O)CC4CC(O)CCC4(C)C3CC(O)C12C` (stereo unspecified), with > 100 µM; and `CC(C)C/C=C/C1=NN(c2cccc(S(=O)(=O)O)c2)C2(C1)SCC(=O)N2c1nc2ccccc2s1` (stereo unspecified), with > 100 µM; and `CC(=O)N(CN1C(=O)CCC1C(=O)O)c1cccc(O)c1` (stereo unspecified), with > 100 µM. The compound `O=C1Nc2ccccc2/C1=C/c1c(Cl)[nH]c2ccc(O)cc12` returned a total growth inhibition concentration (TGI) of 23.3 µM.

Consider `COc1cc(C)c(O)c(C(=O)O)c1`, for which the total growth inhibition concentration (TGI) is > 100 µM.

In the case of `C=CCC(OCCOCC)c1cc(OCCOCC)ccc1OC` (stereo unspecified), the TGI is > 100 µM. Take `CCOP(=O)(OCC)C1=C(c2ccccc2)OC(N)=C(C#N)C1c1ccc(Cl)cc1` (stereo unspecified): the TGI is > 100 µM. For `CS/C(C)=N/OC(=O)NCCCCNc1ccc(N=[N+]=[N-])cc1`, the TGI was > 100 µM. In the case of `COC(=O)C1=C(CCCCO[Si](C)(C)C(C)(C)C)NC(=O)N2[C@@H](CCOCc3ccccc3)CC[C@H]12`, the TGI is > 100 µM. Still for that read-out and setting: then `C=CCNC(=O)NCCCC(NC(C)=O)C(=O)NCc1ccccc1` (stereo unspecified), with > 100 µM; and `CCOc1ccc(NCC2CC/C(=C\c3ccc(O)cc3)C2=O)cc1` (stereo unspecified), with > 100 µM; and `CCN(CC)CC(C(=O)Nc1c(C)cccc1C)/C(C)=N\NC(=O)c1ccncc1` (stereo unspecified), with > 100 µM. As for `O=C1CCCCC/C1=C\c1ccc(Cl)cc1`, the TGI was > 100 µM. Still for that read-out and setting: then `O=C1C(=Nc2ccccc2)Oc2cc(O)ccc21`, with > 100 µM; and `C=CCC1OC(=O)CCNC(=O)C(C)N(C)C(=O)C(C(C)C)N(C)C(=O)C(C(C)CC)NC(=O)C2CCCN2C1=O` (stereo unspecified) (cyclo([X28]PI[NMeV][NMeA][βAla]); configuration not given here), with > 100 µM; and `CC(C)CC(NC(=O)C(CCI)Cc1ccccc1)C(=O)Nc1ccccc1` (stereo unspecified), with > 100 µM. Consider `OCC1OC(n2cnc3c(=S)nc[nH]c32)C(O)C1O` (stereo unspecified), for which the GI50 is 8.64 µM and the TGI was > 2500 µM. On to `CN(CCCN(C)CCc1ccc(Cl)c(Cl)c1)CCCN1CCCC1`, for which the TGI turned out to be 4.21 µM. The compound `CSC1(SC2=NCCN2)SC2(NCCN2)S1` showed a TGI of 39.3 µM. With `O=c1cc(N=Nc2ccc(O)cc2)[nH]c(=O)[nH]1`, the TGI is > 100 µM. As to `Cc1ccc(-c2c(C#N)c(N)nc3c2CCS(=O)(=O)c2ccccc2-3)cc1`, the TGI was > 100 µM. For `C=CC1C(OC2OC(CO)C(O)C(O)C2O)OC=C(C(=O)OC)C1CC=O` (stereo unspecified), the TGI is > 100 µM. With `CCCCCC[C@H]1C(=O)O[C@H](C)[C@H](NC(=O)c2cccc(NC=O)c2OC)C(=O)O[C@@H](C)[C@@H]1OC(=O)CC(C)C` (tested in a mixture with another compound), the TGI was > 100 µM.

`Nc1ccc(-c2ccc(N)cc2I)c(I)c1`: the GI50 is 17.7 µM and the TGI stood at 47.4 µM.

With `CCOC(=O)c1nc(-c2ccccc2)oc1OCC`, the TGI is > 100 µM. Still for that read-out and setting: then `COc1ccc(C(=O)N(C(=S)OCCOc2ccccc2)c2ccccc2)cc1`, with > 100 µM; and `C[n+]1cccc2ccc(OC(=O)c3ccccc3)cc21`, with > 100 µM. As to `CCNCCNc1cc(C2CCCCC2)c(C#N)c2nc3ccccc3n12`, the GI50 is 2.45 µM and the TGI was 7.06 µM. As to `c1ccc2c(c1)nc1n2C2CCC(C2)N1` (stereo unspecified), the TGI is > 10 µM. Turning to `COc1cccc2nc3cc(C)c(C)cc3nc12`, the total growth inhibition concentration (TGI) is > 100 µM.

`CC(C)(C)[Si](C)(C)OCCOCn1cc(F)c(=O)[nH]c1=O`: the TGI was > 100 µM. As for `CC(C)C[C@H](NC(=O)[C@@H](O)[C@H](N)Cc1ccc([N+](=O)[O-])cc1)C(=O)O`, the GI50 is > 25 µM and the TGI is > 25 µM. Consider `O=C(Cc1ccccc1)NCCCN(CCCCN(CCCNC(=O)Cc1ccccc1)C(=O)OCc1ccccc1)C(=O)OCc1ccccc1`, for which the TGI was > 100 µM. For the compound `N#Cc1cc([N+](=O)[O-])ccc1NC(=O)/C(=N/N)C(C(=O)c1ccc(Cl)c(Cl)c1)C1OC(=O)c2ccccc21` (stereo unspecified), the TGI was > 100 µM.

In the case of `N#Cc1[nH]c(=O)n(-c2cccc3ccccc23)c1N`, the TGI was > 10 µM.

As for `O=C1C(=C(I)I)c2ccccc2-c2ccccc21`, the TGI is 24.8 µM. Regarding `COc1cc(C(=O)/C=C/c2cccnc2Nc2ccccc2)cc(OC)c1OC`, the GI50 is 1.9 µM and the TGI came to 3.39 µM.

Take `CCN(CC)c1ccc2cc(NC(=O)OCCNC(=O)CCNC(=O)[C@H](CC(C)C)NC(=O)C(C)(C)NC(=O)C(C)(C)NC(=O)[C@H](CC(C)C)NC(=O)CCNC(=O)C(C)(C)NC(=O)[C@H](CC(C)C)NC(=O)CCNC(=O)[C@@](C)(CC)NC(=O)[C@H](C)NC(=O)CCNC(=O)C(C)(C)NC(=O)[C@H](C)NC(=O)[C@@H]3CCCN3C(=O)[C@@](C)(CC)NC(=O)[C@H](Cc3ccccc3)NC(=O)C3CCCN3C(=O)C(C)(C)NC(=O)C3CCCN3C(=O)C(C)(C)NC(C)=O)c(=O)oc2c1` (stereo partly specified) (Ac-[Aib][ξP][Aib][ξP]F[dIva]PA[Aib][βAla]A[dIva][βAla]L[Aib][βAla]L[Aib][Aib]L[βAla][X12]-X13): the GI50 was 0.00531 µM and the TGI is 0.051 µM. For the compound `C/C=C/[C@@H]1OC(=O)C2=C[C@@H](O)[C@@H](/C=C/C)O[C@H]21`, the GI50 is 14.7 µM and the TGI was found to be 31.9 µM. On to `Oc1ccc(/C=C/c2ccc3cccc(O)c3n2)cc1O`, for which the TGI was found to be 40 µM. On to `O=C(O)CC1OCC=C2CN3CCC45C6=CC(=O)C(=O)C([N+](=O)[O-])=C6NC4C1C2CC35` (stereo unspecified), for which the TGI was > 100 µM. Same read-out and setting: then `O=c1[nH]c(-c2ccccc2)nc2c1sc1nc3ccccc3n12`, with > 100 µM; and `CCOc1ncn(-c2ccc(NC(=S)NC34CC5CC(CC(C5)C3)C4)cc2)n1`, with > 100 µM; and `O=C1CCC2(c3ccccc3)Nc3ncccc3N12` (stereo unspecified), with > 100 µM. With `O=C(/C=C/c1ccccc1)CSc1nc2ccc(I)cc2c(=O)n1Cc1ccccc1`, the TGI is > 89.7 µM. Regarding `CN(C)CC1CCCCCC(CN(C)C)C1=O` (stereo unspecified), the GI50 was 33.2 µM and the TGI was > 90.8 µM. Regarding `COCCNc1cc(NC(=O)N2CCCc3cc(CN4CCN(C)CC4=O)c(C=O)nc32)ncc1C#N`, the GI50 was > 50 µM and the TGI was > 50 µM. With `C/C(=N\NC(=S)NC(C)(C)C)c1ccccn1`, the TGI is > 100 µM. Consider `CCCOC(=O)CCn1c(SC)nc2[nH]cc(-c3ccccc3)c2c1=O`, for which the GI50 is 54.9 µM and the TGI was > 100 µM. In the case of `CCOc1cc2c(cc1OC(C)=O)C(=O)CC[C@H]1C3CC[C@H](OC(C)=O)[C@@]3(C)CC[C@H]21` (stereo partly specified), the concentration for total growth inhibition (TGI) was > 100 µM. On the same count and under the same terms, as for `CCC(/C=C/c1ccccc1)=N\Nc1ccc(Cl)c(Cl)c1`, the figure is > 100 µM. With `C=C1CCC2C3(C)COC(c4ccccc4Br)OC3CCC2(C)C1C/C=C1/C(=O)OCC1OC(C)=O` (stereo unspecified), the GI50 is 3.79 µM and the TGI is 16.5 µM. Consider `O=C1/C(=C/c2ccccc2)CCC/C1=C\c1ccc(O)c(CN2CCCCC2)c1`, for which the TGI is 18.5 µM.

Turning to `CS/C(=N\c1nccs1)NC(=O)c1cccc(Cl)c1`, the TGI was > 100 µM. On the same count and under the same terms, as for `CN(C(=O)c1ccncc1)c1ccccc1`, the figure is > 100 µM. Consider `O=C1NC(=O)C(COCc2ccccc2)C2=C1SCCC2` (stereo unspecified), for which the TGI was > 100 µM. Same read-out and setting: then `C/C(=N\NC(=S)Nc1ccc(C)cc1)c1nc2ncccc2[nH]1`, with 30 µM.

`Nc1c(C(=O)Nc2ccccc2)sc2nc3c(cc12)CN(Cc1ccccc1)CC3`: the GI50 was > 100 µM and the TGI is > 100 µM. Take `CCC(=O)N(O)C(C)(C)C`: the TGI was > 100 µM.

As for `CC(C)C12C=CC(C)(CC1)n1c(=O)c3cc4ccccc4cc3c(=O)n12` (stereo unspecified), the TGI is > 100 µM. On the same count and under the same terms, then `NC(CCC(=O)O)(CCC(=O)O)CCC(=O)O`, with > 100 µM. In the case of `CC1=N[C@](C)(C2CC3C=CC2C3=O)COC1=O` (stereo partly specified), the TGI was > 100 µM. For `COc1cccc2c1C(=O)c1ccc3cc(CCl)cc(O)c3c1C2=O`, the TGI came out at 1.95 µM. In turn, `CCOC(=O)/C=C(\C(=O)OCC)n1ccc(=O)n(CC(=O)OCC)c1=O` displayed a TGI of 32.4 µM. With `COc1cc(C2C3=C(COC3=O)Nc3cc4c(cc32)CCC4)cc2c1OCO2` (stereo unspecified), the GI50 was 3.37 µM and the concentration for total growth inhibition (TGI) came to 41 µM. In the case of `Cc1[nH]c2ccccc2c1CCNCc1ccc(/C=C/C(=O)NO)cc1`, the GI50 was 0.0118 µM and the TGI amounted to 0.0949 µM.

On to `NC(=S)N/N=C1\c2ccccc2CCC1CCC1(O)CCc2ccccc2C1=O` (stereo unspecified), for which the TGI was > 100 µM. Turning to `N.N.NCCCCCCN.O=C([O-])CC(=O)[O-].O=C([O-])CC(=O)[O-].[Pt+4].[Pt+4]`, the GI50 is > 100 µM and the TGI was > 100 µM.
